# PubChem BioAssay (Tox21)
# Values joined by “and” are separate entries in the source; they are usually repeats but may differ in a detail not shown here. Equal values may be shown once. Inconclusive results, whose numbers are uncertain, are shown with a selection of clear calls. For some of these results: Where the call is inconclusive, the potency comes from a doubtful curve fit. Some compounds were tested as several samples or in several runs, with calls that do not always agree. Active and inactive are the calls of the source. Unless noted, calls come from the whole dose curve; as a rule, active = well fitted curve in the direction sought with a large enough effect in the repeat runs; inconclusive = weak or mixed curves; inactive = no such curve, though single readings can be large; an effect the other way counts as inactive or inconclusive.
# What was measured:
# [1] = qHTS RealTime-Glo MT Cell Viability Assay in HepG2 cells - 24 hour (AID 1224867); details: RealTime-Glo luminescence; series mostly up to 76.8 µM; note: potency is the fitted concentration of half-maximal effect; nearly all actives have a fitted effect of over 50% in size
# Procedure, shortened: (§1)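 Tox21 10K library screened in qHTS format on HepG2 cells carrying RealTime-Glo reagents. Compounds were added after a 5 h preincubation, and the luminescent signal from continuous culture was measured repeatedly during 40 h treatment.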
# [2] = qHTS RealTime-Glo MT Cell Viability Assay in HEK293 cells - 32 hour (AID 1224868); details: RealTime-Glo luminescence; series mostly up to 76.8 µM; note: nearly all actives have a fitted effect of over 50% in size; note: potency is the fitted concentration of half-maximal effect
# Procedure, shortened: (§2)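 Luminescence generated by NanoLuc from substrate produced by living HEK293 cells served as the viability signal. Each value reflects the reading at its stated time point during continuous 40 h compound exposure at 37 C.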
# [3] = qHTS RealTime-Glo MT Cell Viability Assay in HEK293 cells - 16 hour (AID 1224872); details: RealTime-Glo luminescence; series mostly up to 76.8 µM; note: nearly all actives have a fitted effect of over 50% in size; note: potency is the fitted concentration of half-maximal effect
# Procedure, shortened: as §2
# [4] = qHTS RealTime-Glo MT Cell Viability Assay in HEK293 cells - 40 hour (AID 1224874); details: RealTime-Glo luminescence; max response: stronger effect = lower value; note: nearly all actives have a fitted effect of over 50% in size; note: potency is the fitted concentration of half-maximal effect; for max response: % is set by controls: 0 for no effect and ±100 for the full control effect
# Procedure, shortened: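 600 HEK293 cells per well, dispensed already mixed with RealTime-Glo MT reagents. Compound dosing came 5 h later. The same wells were read for luminescence at 0, 8, 16, 24, 32 and 40 h of exposure at 37 C.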
# [5] = qHTS assay to identify small molecule agonists of the estrogen related receptor (ERR) signaling pathway from Tox21 library (AID 1224849; calls by dose curve; note: % is set by controls: 0 for no effect and ±100 for the full control effect; nearly all actives have a fitted effect of over 15% in size); details: ERR reporter cell line, ONE-Glo luciferase, 18 h
# Procedure, shortened: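 Quantitative HTS in agonist format: NTP ERR cell line, compounds transferred in DMSO after 6 h plating, 18 h incubation at 37 C, ONE-Glo luminescence endpoint.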
# [6] = qHTS RealTime-Glo MT Cell Viability Assay in HepG2 cells - 32 hour (AID 1224877); details: RealTime-Glo luminescence; series mostly up to 76.8 µM; note: nearly all actives have a fitted effect of over 55% in size; note: potency is the fitted concentration of half-maximal effect
# Procedure, shortened: as §1
# [7] = A CellTox Green Cytotoxicity Assay to monitor cytotoxicity in HepG2 cells - 24 hour (AID 1224878); details: CellTox Green fluorescence; series mostly up to 76.8 µM; note: nearly all actives have a fitted effect of over 45% in size; note: potency is the fitted concentration of half-maximal effect; for Cytotoxicity: % is set by controls: 0 for no effect and ±100 for the full control effect
# Procedure, shortened: (§3)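 First, HepG2 cells (600/well) mixed with reagent were plated; second, after 5 h at 37 C they received compounds via pintool; third, fluorescence was measured at 0 h through 40 h at 8 h intervals.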
# [8] = qHTS RealTime-Glo MT Cell Viability Assay in HepG2 cells - 40 hour (AID 1224870); details: RealTime-Glo luminescence; series mostly up to 76.8 µM; note: nearly all actives have a fitted effect of over 50% in size; note: potency is the fitted concentration of half-maximal effect
# Procedure, shortened: (§4)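 HepG2 cells mixed with RealTime-Glo MT reagents (NanoLuc plus cell-permeant prosubstrate) were seeded at 600 cells/well, incubated 5 h at 37 C/5% CO2, then pinned with compounds in DMSO; nonlytic luminescence tracked viability during 40 h treatment.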
# [9] = A CellTox Green Cytotoxicity Assay to monitor cytotoxicity in HEK293 cells - 40 hour (AID 1224871); details: CellTox Green fluorescence; series mostly up to 76.8 µM; note: nearly all actives have a fitted effect of over 45% in size; note: potency is the fitted concentration of half-maximal effect; for cytotoxicity increase: % is set by controls: 0 for no effect and ±100 for the full control effect
# Procedure, shortened: (§5)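 Dead-cell fluorescence measured kinetically: asymmetric cyanine dye, HEK293, 600 cells/well, 5 h settle, 23 nL cpd/DMSO, 37 C, reads 0–40 h every 8 h.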
# [10] = A CellTox Green Cytotoxicity Assay to monitor cytotoxicity in HEK293 cells - 24 hour (AID 1224875); details: CellTox Green fluorescence; series mostly up to 76.8 µM; note: nearly all actives have a fitted effect of over 45% in size; note: potency is the fitted concentration of half-maximal effect
# Procedure, shortened: as §5
# [11] = A CellTox Green Cytotoxicity Assay to monitor cytotoxicity in HepG2 cells - 16 hour (AID 1224876); details: CellTox Green fluorescence; series mostly up to 76.8 µM; note: potency is the fitted concentration of half-maximal effect; nearly all actives have a fitted effect of over 45% in size
# Procedure, shortened: as §3
# [12] = A CellTox Green Cytotoxicity Assay to monitor cytotoxicity in HEK293 cells - 32 hour (AID 1224881); details: CellTox Green fluorescence; series mostly up to 76.8 µM; note: nearly all actives have a fitted effect of over 40% in size; note: potency is the fitted concentration of half-maximal effect
# Procedure, shortened: as §5
# [13] = qHTS RealTime-Glo MT Cell Viability Assay in HepG2 cells - 8 hour (AID 1224873); details: RealTime-Glo luminescence; series mostly up to 76.8 µM; note: nearly all actives have a fitted effect of over 55% in size; note: potency is the fitted concentration of half-maximal effect
# Procedure, shortened: as §4
# [14] = A CellTox Green Cytotoxicity Assay to monitor cytotoxicity in HEK293 cells - 0 hour (AID 1224869); details: CellTox Green fluorescence; series mostly up to 76.8 µM; note: nearly all actives have a fitted effect of over 50% in size; note: potency is the fitted concentration of half-maximal effect; for Cytotoxicity: % is set by controls: 0 for no effect and ±100 for the full control effect
# Procedure, shortened: as §5
# [15] = A CellTox Green Cytotoxicity Assay to monitor cytotoxicity in HepG2 cells - 40 hour (AID 1224879); details: CellTox Green fluorescence; series mostly up to 76.8 µM; note: potency is the fitted concentration of half-maximal effect; nearly all actives have a fitted effect of over 40% in size
# Procedure, shortened: as §3
# Tags give direction and shape of the fitted curve.
smiles,measurement,setting,value
C[C@]12CC[C@@H]3c4ccc(O)cc4C[C@@H](CCCCCCCCCS(=O)CCCC(F)(F)C(F)(F)F)[C@H]3[C@@H]1CC[C@@H]2O (stereo partly specified),Potency,[1],"inconclusive: 12 µM [falling, partial curve]"
same,Potency,[2],"inconclusive: 7.23 µM [cytotoxic, full curve] and inconclusive: 10.7 µM [cytotoxic, partial curve]"
same,Potency,[3],"active: 43.6 µM and inconclusive: 7.23 µM [cytotoxic, full curve] and inconclusive: 26.8 µM [cytotoxic, partial curve, poor fit]"
same,Potency,[4],"inconclusive: 7.23 µM [cytotoxic, partial curve] and inconclusive: 9.52 µM [cytotoxic, partial curve]"
CCCCCCCCCCCCCCCC,"activity change, positive = activation",[5]; at 92.4 µM (top of the series),inactive: 3.33%
same,Potency,[6],inactive
O=C1CC2(CCCC2)CC(=O)N1CCCCN1CCN(c2ncccn2)CC1,"activity change, positive = activation",[5]; at 42.5 µM (top of the series),inactive: -12.4%
same,"activity change, positive = activation",[5]; at 92.4 µM (top of the series),inactive: -47%
same,Potency,[3],active: 43.6 µM
same,Potency,[4],"active: 27.5 µM and inconclusive: 23.9 µM [cytotoxic, partial curve, poor fit]"
same,Potency,[7],"inconclusive: 27.5 µM [activator, partial curve, poor fit]"
CC1(C)C(=O)N(Br)C(=O)N1Br,Potency,[2],inactive
CC1CCCCN1CCCOC(=O)c1ccc(OC2CCCCC2)cc1 (stereo unspecified),Potency,[1],"inconclusive: 21.3 µM [falling, partial curve, poor fit]"
same,Potency,[8],"inconclusive: 26.8 µM [falling, single point]"
same,Potency,[9],"inconclusive: 26.8 µM [activator, single point]"
same,Potency,[3],active: 15.1 µM
same,Potency,[4],active: 21.3 µM
same,Potency,[10],"inconclusive: 26.8 µM [activator, single point]"
same,Potency,[11],"inconclusive: 3.01 µM [activator, full curve, poor fit]"
same,Potency,[6],"inconclusive: 23.9 µM [cytotoxic, single point]"
same,Potency,[12],"inconclusive: 26.8 µM [activator, single point]"
O=[Se](O)O,Potency,[1],"inconclusive: 49 µM [falling, single point]"
same,Potency,[2],"inconclusive: 3.74 µM [cytotoxic, full curve]"
same,Potency,[9],active: 30.9 µM
same,cytotoxicity increase,[9],inactive: -7.57% [at 15.8 µM]
same,Potency,[4],"inconclusive: 3.74 µM [cytotoxic, full curve]"
same,Potency,[10],"inconclusive: 0.47 µM [activator, single point]"
same,Potency,[6],"inconclusive: 39 µM [cytotoxic, partial curve]"
same,Potency,[7],"inconclusive: 43.7 µM [activator, partial curve]"
O=C(O)Cn1c(=O)n(Cc2ccc(Br)cc2F)c(=O)c2ccc(Cl)cc21,Potency,[1],"inconclusive: 19 µM [falling, partial curve]"
same,Potency,[2],"inconclusive: 49 µM [cytotoxic, partial curve] and inconclusive: 21.3 µM [cytotoxic, partial curve, poor fit]"
same,Potency,[8],"inconclusive: 54.9 µM [falling, single point]"
same,Potency,[3],"inconclusive: 27.5 µM [cytotoxic, partial curve]"
same,Potency,[13],active: 21.9 µM and active: 8.49 µM
same,Potency,[4],"inconclusive: 49 µM [cytotoxic, partial curve] and inconclusive: 21.3 µM [cytotoxic, partial curve]"
same,Potency,[6],"inconclusive: 49 µM [cytotoxic, partial curve] and inconclusive: 23.9 µM [cytotoxic, partial curve, poor fit]"
O=S(=O)(O)c1cc(S(=O)(=O)O)c2c(N=Nc3ccccc3)c(O)ccc2c1,Potency,[1],"inconclusive: 38.9 µM [falling, partial curve, poor fit]"
same,Potency,[2],"inconclusive: 55.2 µM [cytotoxic, single point]"
same,Potency,[4],"inconclusive: 61.9 µM [cytotoxic, single point]"
same,Potency,[11],"inconclusive: 24.5 µM [activator, single point]"
CC(C)COC(=O)c1ccc(N)cc1,"activity change, positive = activation",[5]; at 42.5 µM (top of the series),inconclusive: 26.4%
NC(N)=Nc1nc(CSCC/C(N)=N/S(N)(=O)=O)cs1,Potency,[8],inactive
CCN(CC)CCCN(c1ccccc1)C1Cc2ccccc2C1,Potency,[8],inactive
CCOc1ccc2[nH]cc(C(=O)NCc3ccccc3)c(=O)c2n1,Potency,[13],"inconclusive: 38.9 µM [falling, partial curve]"
Cc1ncc[nH]1,Potency,[14],inactive
O=C1c2ccccc2C(=O)N1CCc1noc(-c2ccc(CN3CCCCCC3)s2)n1,Potency,[14],"inconclusive: 40 µM [activator, partial curve]"
same,Potency,[13],"inconclusive: 40 µM [falling, single point]"
same,Potency,[11],active: 20.1 µM
same,Potency,[12],"inconclusive: 35.7 µM [activator, partial curve]"
C=CN1CCCC1=O,Potency,[9],inactive
same,Potency,[3],inactive
Nc1c(Cl)cc(Cl)cc1Cl,Potency,[9],"inconclusive: 24.2 µM [activator, single point]"
same,Potency,[10],"inconclusive: 24.2 µM [activator, single point]"
same,Potency,[12],"inconclusive: 24.2 µM [activator, single point]"
CCC(O)C(C)(C)C (stereo unspecified),Potency,[9],"inconclusive: 56.7 µM [activator, single point]"
same,Potency,[10],"inconclusive: 56.7 µM [activator, single point]"
same,Potency,[12],"inconclusive: 56.7 µM [activator, single point]"
CCCCC(CC)COC(=O)CCCCC(=O)OCc1ccccc1 (stereo unspecified),Potency,[14],inactive
Cc1ccc([N+](=O)[O-])c(N)c1,Potency,[9],inactive
same,Potency,[7],inactive
CCCNC(C)C(=O)Nc1ccccc1C (stereo unspecified),Potency,[8],inactive
CC(CO)(CO)C(=O)O,Potency,[9],inactive
O=C1CCCCCCCCCCC1,Potency,[9],"inconclusive: 49 µM [activator, single point]"
same,Potency,[10],"inconclusive: 49 µM [activator, partial curve, poor fit]"
same,Potency,[12],"inconclusive: 49 µM [activator, single point] and inconclusive: 54.9 µM [activator, single point]"
CC1=CCC(C(C)(C)O)CC1 (stereo unspecified),Potency,[9],"inconclusive: 17.4 µM [activator, partial curve]"
same,max response,[4],inactive: 3.53% and inactive: 0%
same,Potency,[10],"inconclusive: 21.9 µM [activator, single point]"
same,Potency,[11],active: 19.5 µM
same,Potency,[15],active: 21.9 µM
same,Potency,[12],"inconclusive: 19.5 µM [activator, partial curve]"
N[C@@H](Cc1cc(I)c(Oc2cc(I)c(O)c(I)c2)c(I)c1)C(=O)O,Potency,[14],inactive
NC(=O)CC[C@@H]1NC(=O)[C@H](Cc2ccccc2)NC(=O)[C@H](Cc2ccc(O)cc2)NC(=O)CCSSC[C@@H](C(=O)N2CCC[C@H]2C(=O)N[C@@H](CCCN=C(N)N)C(=O)NCC(N)=O)NC(=O)[C@H](CC(N)=O)NC1=O,Potency,[9],inactive
same,Potency,[10],inactive
CCCCN(CCN(CCCC)C(=O)N1CCOCC1)C(=O)N1CCOCC1,Potency,[9],inactive
C=Cc1ccc(S(=O)(=O)O)cc1,Potency,[9],"inconclusive: 61.7 µM [activator, single point]"
same,max response,[4],inactive: -10.1%
same,Potency,[10],"inconclusive: 54.9 µM [activator, single point]"
same,Potency,[11],"inconclusive: 54.9 µM [activator, single point]"
same,Potency,[6],"inconclusive: 61.7 µM [cytotoxic, partial curve, poor fit]"
same,Potency,[7],active: 49 µM
same,Potency,[12],"inconclusive: 61.7 µM [activator, single point]"
CC(=O)c1ccc(Cl)c(Cl)c1Cl,Potency,[9],"inconclusive: 43.6 µM [activator, partial curve, poor fit]"
same,Potency,[10],"inconclusive: 54.9 µM [activator, single point]"
same,Potency,[12],"inconclusive: 43.6 µM [activator, partial curve, poor fit]"
CC(=O)/C(C)=C/C1C(C)=CCCC1(C)C (stereo unspecified),Potency,[14],inactive
same,Potency,[9],active: 17.4 µM
same,Potency,[10],active: 17.4 µM
same,Potency,[7],"inconclusive: 54.9 µM [activator, partial curve, poor fit]"
same,Potency,[15],"inconclusive: 61.6 µM [activator, partial curve, poor fit]"
CC(C)c1cccc(C(C)C)c1N,Potency,[9],"inconclusive: 49 µM [activator, single point]"
same,Potency,[13],inactive
same,Potency,[10],"inconclusive: 49 µM [activator, single point]"
same,Potency,[11],"inconclusive: 61.6 µM [activator, single point]"
same,Potency,[7],"inconclusive: 54.9 µM [activator, partial curve, poor fit]"
same,Potency,[15],"inconclusive: 54.9 µM [activator, partial curve, poor fit]"
same,Potency,[12],"inconclusive: 49 µM [activator, single point]"
COc1ccccc1N1CCN(CCCCNC(=O)c2ccc(-c3ccc(C(C)=O)cc3)cc2)CC1,Potency,[9],"inconclusive: 13.4 µM [activator, partial curve, poor fit]"
same,Potency,[7],"inconclusive: 26.8 µM [activator, partial curve, poor fit]"
same,Potency,[12],"inconclusive: 15.1 µM [activator, partial curve, poor fit]"
CCC(N)(CO)CO,Potency,[9],"inconclusive: 0.495 µM [activator, single point]"
same,Potency,[7],inactive
CC(C)(C)NC(=O)[C@@H]1CN(Cc2cccnc2)CCN1C[C@@H](O)C[C@@H](Cc1ccccc1)C(=O)N[C@H]1c2ccccc2C[C@H]1O,Potency,[9],inactive
CC(C)(C)c1ccc(CCC=O)cc1,Potency,[9],inactive
same,Potency,[7],"inconclusive: 49 µM [activator, partial curve]"
same,Potency,[12],inactive
